For the data set, the system named is ATP. The experiment in a line: switch fluorescence ratio, 500 uM ATP over buffer (Cy3 cluster intensity, sum of 5 cycles each) (fold (ratio)); higher = stronger signal-on switching upon ATP binding; sequences stand for … in TCGTCGGCAGCGTCAGATGTGTATAAGAGACAGTTTTTTTTTTTTTTTTTTTTTTTTT…TC. Conditions: aptamer strand: ATP DNA aptamer (quencher-CACCTGGGGGAGTATTGCGGAGGAAGG + anchor), 100 nM annealed; ATP concentration: 500 uM; one replicate. An outline of the steps: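 The quencher-labelled ATP aptamer, at 100 nM, was annealed to Cy3-labelled switching-strand clusters on a modified Illumina MiSeq flow-cell. The clusters were imaged in selection buffer, then after 15 min with 500 uM ATP at 22 °C, and this buffer/ATP cycle ran five times with NaOH stripping and re-annealing between runs. Per-cluster fluorescence ratios, summed target-cycle over summed buffer-cycle Cy3 intensity, were averaged per switch-domain sequence. Clusters outside 100-1000 RFU were excluded.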

Sequences with one replicate were seen in a single cluster, so their values are uncertain.
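Also: ATP exposure 15 min at 22 °C before imaging.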

On to GTTGCTATTG, for which the switch fluorescence ratio amounted to 1.01.

Turning to ACGACATGC, the switch fluorescence ratio was found to be 1.37.

Consider CGAAGGTGAC, for which the switch fluorescence ratio is 1.19.

Take ATTCTTGGTC: the switch fluorescence ratio is 0.984.

In the case of TTAATTTACC, the switch fluorescence ratio is 1.11.

In the case of CCACATTAGG, the switch fluorescence ratio is 1.04.

Turning to GAAGCTTTTG, the switch fluorescence ratio came to 1.03.

For the sequence ATGAAGTCAT, the switch fluorescence ratio amounted to 1.02.

Turning to TATAATGCAC, the switch fluorescence ratio is 1.09.

In the case of GTAATAAAGC, the switch fluorescence ratio stood at 1.03.

Consider CCCGGTCGAC, for which the switch fluorescence ratio worked out at 1.03.

As to TCGAGTTTTA, the switch fluorescence ratio worked out at 1.07.

On to CGCTTAAACG, for which the switch fluorescence ratio came to 1.07.

As for GCACTATTTT, the switch fluorescence ratio stood at 0.981.

AGCAAGGGAG: the switch fluorescence ratio turned out to be 1.06.

With GTGGCGTTTC, the switch fluorescence ratio stood at 1.01.

Take TGAGAGTCGA: the switch fluorescence ratio is 1.02.

As for ACAGTTCAGT, the switch fluorescence ratio was 1.01.

As for CCGGTTTGAT, the switch fluorescence ratio worked out at 1.04.

With ATGTGGACCG, the switch fluorescence ratio was 0.991.

Turning to AGAGGAGACT, the switch fluorescence ratio was 1.06.

As for ATAATCGCCT, the switch fluorescence ratio is 1.01.

As for GCCAGTGGAG, the switch fluorescence ratio was 0.995.

With TGCGTTGGTT, the switch fluorescence ratio was found to be 0.989.

On to TAGGACTGGC, for which the switch fluorescence ratio was 1.03.

On to AAATCTTAGA, for which the switch fluorescence ratio turned out to be 0.994.

For GGGGTTGCCA, the switch fluorescence ratio was 0.937.

As for CGCCTTCTGT, the switch fluorescence ratio turned out to be 0.978.

For the sequence ATGGCGCACT, the switch fluorescence ratio was 0.964.

Regarding ATAAGAGGAT, the switch fluorescence ratio turned out to be 1.01.

As to TAGTTAGATA, the switch fluorescence ratio was found to be 0.989.

On to GCTACTCGT, for which the switch fluorescence ratio turned out to be 1.05.

Take TGGAAAGCAT: the switch fluorescence ratio stood at 1.02.

As for CGAAATACCT, the switch fluorescence ratio came out at 1.46.

As to AGTCCCGGTG, the switch fluorescence ratio was 1.81.

Turning to TTGATAGAGT, the switch fluorescence ratio is 1.01.

For ATGCCCTGGC, the switch fluorescence ratio stood at 0.993.

Turning to AGGGGTTAC, the switch fluorescence ratio is 1.04.

In the case of AAGCGGGCGT, the switch fluorescence ratio worked out at 1.03.

In the case of GTCTTTCGTA, the switch fluorescence ratio amounted to 0.99.

For GTGGTTCGGC, the switch fluorescence ratio is 0.951.

Turning to CCAATCCGAT, the switch fluorescence ratio came to 1.04.

With AGATCTGAG, the switch fluorescence ratio turned out to be 0.971.

Source of the values: the supplement of paper PMC10126150.
